Laboratory results from patent US20190125701A1 (priority 2016, published 2019).

Test system: mCMV
Assay type: in vivo, mouse

Structure (SMILES): CCCC(C(N)=O)C(C)CC (centres unmarked) [SPD, 3-methyl-2-propylpentanamide]
- body weight reduction versus control mice (mouse, in vivo): 20%
- survival of infected pups (same schedule, survival at PND 30, […]): 67%
